Values joined by “and” are separate entries in the source; they are usually repeats but may differ in a detail not shown here. Equal entries are not always repeated. Structures can show the parent of a compound that is named as a salt. Whole data set: some 2,000 compounds, median “fractional viability relative to vehicle” near 0.91, cut for the lowest 2% near 0.045. The list shows a part of the results.
Tested on: TYKNU
Test: fractional viability relative to vehicle; TYKNU is a high-grade serous ovarian cancer line; higher = less growth inhibition
Conditions: 72 h
Summary of the method: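 TYKNU control cells or lentiCRISPRv2 knockout derivatives were plated at 500 cells per well in duplicate into drug-stamped 384-well plates holding a ~2100-compound library at 2 or 10 μM. Culture was in RPMI 1640 with 10% FBS at 37 °C in 5% CO2, with 72 h of drug treatment. Viability was measured by Cell Titer Glo luminescence, and the averaged duplicate treatment wells were normalised to duplicate control wells at the same plate position.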

[1] = 2uM, genotype: DNM1L knockout (sgDNM1L #1)
[2] = 2uM, genotype: sgCTRLA1 (non-targeting control)
[3] = 10uM, genotype: DNM1L knockout (sgDNM1L #1)
[4] = 10uM, genotype: sgCTRLA1 (non-targeting control)

| SMILES | fractional viability [1] | fractional viability [2] | fractional viability [3] | fractional viability [4] |
| --- | --- | --- | --- | --- |
| C[C@H]1O[C@H](O[C@H]2[C@H](O)[C@@H](O)[C@@H](O[C@H]3[C@H](O)[C@@H](O)C(O)O[C@@H]3CO)O[C@@H]2CO)[C@H](O)[C@@H](O)[C@@H]1N[C@H]1C=C(CO)[C@@H](O)[C@H](O)[C@H]1O (some centres undefined) [Acarbose] | 0.938 | 1.17 | 0.953 | 1.22 |
| CNC1CCCN(c2c(F)cc3c(=O)c(C(=O)O)cn(C4CC4)c3c2OC)C1 (centres undefined) [Balofloxacin] | 0.977 | 1.05 | 0.965 | 1.01 |
| CC[C@H]1[C@@H](O)[C@@H]2[C@H](CC[C@]3(C)[C@@H]([C@H](C)CCC(=O)O)CC[C@@H]23)[C@@]2(C)CC[C@@H](O)C[C@@H]12 [Obeticholic Acid] | 0.846 | 0.891 | 0.952 | 0.807 |
| CN1CCC(=C2c3ccccc3C=Cc3ccccc32)CC1 [Cyproheptadine HCl] | 0.982 | 1.06 | 0.717 | 0.943 |
| N=C(N)NC(=N)NCCc1ccccc1 [Phenformin HCl] | 1.01 | 1.24 | 0.769 | 0.947 |
| CO[C@H]1/C=C/O[C@@]2(C)Oc3c(C)c(O)c4c(O)c(c(/C=N/N5CCN(C6CCCC6)CC5)c(O)c4c3C2=O)NC(=O)/C(C)=C\C=C\[C@H](C)[C@H](O)[C@@H](C)[C@@H](O)[C@@H](C)[C@H](OC(C)=O)[C@@H]1C [Rifapentine] | 0.837 | 1.01 | 0.453 | 0.622 |
| COc1cccc2c1c(O)c(C(=O)N(C)c1ccc(C(F)(F)F)cc1)c(=O)n2C [Tasquinimod] | 0.708 | 0.952 | 0.713 | 0.752 |
| CCCc1cc(C(N)=S)ccn1 [Protionamide] | 1.03 | 1.11 | 0.93 | 1.16 |
| C#Cc1cccc(Nc2ncnc3cc(OC)c(OCCCCCCC(=O)NO)cc23)c1 | 0.185 | 0.281 | 0.0985 | 0.0936 |
| CC(=O)S[C@@H]1CC2=CC(=O)CC[C@]2(C)[C@H]2CC[C@@]3(C)[C@@H](CC[C@@]34CCC(=O)O4)[C@H]12 [Spironolactone] | 1.03 | 1.08 | 0.835 | 1.04 |
| O=C(O)[C@]1(Cc2cccc(Nc3nccs3)n2)CC[C@@H](Oc2cccc(Cl)c2F)CC1 | 0.521 | 0.712 | 0.439 | 0.417 |
| COc1cc2c(Nc3ccc(NC(=O)c4ccccc4)cc3)ncnc2cc1OCCCN1CCOCC1 | 0.862 | 0.959 | 0.266 | 0.22 |
| CC(=O)Nc1ccc(C(=O)Nc2ccccc2N)cc1 [CI994 (Tacedinaline)] | 0.966 | 0.965 | 0.456 | 0.675 |
| C=C1CC[C@H](O)C/C1=C/C=C1\CCC[C@]2(C)[C@@H]([C@H](C)CCCC(C)C)CC[C@@H]12 [Vitamin D3] | 0.936 | 1.13 | 0.276 | 0.497 |
| CC(C)(O)[C@H]1CC[C@@](C)([C@H]2[C@@H](O)C[C@@]3(C)[C@@H]4C[C@H](O[C@@H]5O[C@H](CO)[C@@H](O)[C@H](O)[C@H]5O)[C@H]5C(C)(C)[C@@H](O[C@@H]6OC[C@@H](O)[C@H](O)[C@H]6O)CC[C@@]56C[C@@]46CC[C@]23C)O1 [Astragaloside A] | 0.893 | 1.13 | 0.755 | 0.989 |
| COC(=O)Nc1nc2cc(C(=O)c3cccs3)ccc2[nH]1 [Nocodazole] | 0.168 | 0.139 | 0.203 | 0.177 |
| COc1cc(Br)c(Nc2nc(-c3c(C)nc4ncccn34)cs2)c(Br)c1 | 0.132 and 0.166 | 0.149 and 0.143 | 0.152 and 0.167 | 0.116 and 0.103 |
| CC(C)(C)c1cnc(CSc2cnc(NC(=O)C3CCNCC3)s2)o1 | 0.272 | 0.294 | 0.361 | 0.285 |

| SMILES | fractional viability [1] | fractional viability [2] | fractional viability [3] | fractional viability [4] |
| --- | --- | --- | --- | --- |
| CCN[C@H]1CN(CCCOC)S(=O)(=O)c2sc(S(N)(=O)=O)cc21 [Brinzolamide] | 1.02 | 1.14 | 0.8 | 1.04 |
| CC(C)c1c(C(=O)Nc2ccccc2)c(-c2ccccc2)c(-c2ccc(F)cc2)n1CC[C@@H](O)C[C@@H](O)CC(=O)O [Atorvastatin Calcium] | 0.591 | 0.614 | 0.286 | 0.313 |
| OC(Cn1cncn1)(Cn1cncn1)c1ccc(F)cc1F [Fluconazole] | 1 | 1.19 | 0.894 | 0.994 |
| NCCc1c[nH]cn1 [Histamine 2HCl] | 1.04 | 0.99 | 0.758 | 0.948 |
| Nc1[nH]cnc2ncnc1-2 [Adenine HCl] | 0.977 | 0.959 | 1.01 | 1.22 |
| CC(=O)Nc1cccc(-n2c(=O)n(C3CC3)c(=O)c3c(Nc4ccc(I)cc4F)n(C)c(=O)c(C)c32)c1 | 0.253 | 0.199 | 0.201 | 0.182 |
| C[C@@H](NCCCc1cccc(C(F)(F)F)c1)c1cccc2ccccc12 [Cinacalcet HCl] | 0.861 | 1.12 | 0.521 | 0.856 |
| COc1cc2ncnc(Sc3nnc(C)s3)c2cc1OC | 0.747 | 0.866 | 0.0591 | 0.0581 |
| O=C(NC[C@H](O)CN1CCc2ccccc2C1)c1cc(NC2COC2)ncn1 | 0.764 | 0.899 | 0.604 | 0.662 |
| Cc1ccc(S(=O)(=O)c2ccc([N+](=O)[O-])o2)cc1 | 0.0323 | 0.012 | 0.0126 | 0.00867 |
| O=C1NC(=O)C(c2cnc3ccccn23)=C1c1cn2c3c(cc(F)cc13)CN(C(=O)N1CCCCC1)CC2 | 0.458 | 0.753 | 0.395 | 0.671 |
| CCCc1ncc(C[n+]2ccccc2C)c(N)n1 [Amprolium HCl] | 0.879 | 1.04 | 0.834 | 1.02 |
| O=C1NC(=O)/C(=C/c2ccc3nccc(-c4ccncc4)c3c2)S1 | 0.556 | 0.7 | 0.21 | 0.219 |
| O=C1NC(=O)C(c2ccccc2[N+](=O)[O-])=C1Nc1ccc(O)c(Cl)c1 | 1.09 | 1.22 | 0.762 | 1.13 |
| OC[C@H]1OC(O)[C@H](O)[C@@H](O)[C@@H]1O (some centres undefined) [Dextrose] | 0.922 | 1.05 | 0.941 | 0.998 |
| CC(C(=O)O)c1cccc(Oc2ccccc2)c1 (centres undefined) [Fenoprofen calcium hydrate] | 1.05 | 1.12 | 0.821 | 1.04 |
| CC(C(=O)O)c1cccc(Oc2ccccc2)c1 (centres undefined) [Fenoprofen Calcium] | 1.27 | 1.08 | 0.966 | 0.961 |
| COCCOc1nc(-c2ccc(Cl)c(Cl)c2)n(-c2ccc(NC(=O)CCl)cc2)n1 [MI-2 (MALT1 inhibitor)] | 0.786 | 1.05 | 0.792 | 0.806 |

Source: the supplement of paper PMC5919970
